# Test results taken from the supplement of paper PMC11417369.
# ± gives the standard deviation of the averaged measurements. The list shows a part of the results.
# Tested on: PfAP2-G AP2 domain (GST-tagged)
# Assay: gcPBM binding intensity (ln(normalized median fluorescence intensity)); higher = stronger DNA binding
# Outline: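 The highest Masliner-normalised natural-log median intensity across replicate spots of either probe orientation is reported as binding intensity. GST-tagged P. falciparum DNA-binding domains expressed in E. coli were applied for 1 h to an Agilent 4 × 180k array of primer-extended double-stranded 36-bp intergenic genomic probes plus negative controls, and bound protein was detected with Alexa488 anti-GST antibody and scanned at 488 nm.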
row,Sequence,gcPBM binding intensity (ln)
1,AAATGTTGAAATGATACACACATATAAATATAAATA [CACACA_site7229],9.75 ± 0.38
2,ATAAATCCATGGGTAGTGCGCATTTTTTTTTTTTTT [GTGCAC_site9732],10.3 ± 0.18
3,TTAGTGTATTAATTCTCACACACTAAGAAAAAAAAA [CACACA_site3878],10.1 ± 0.33
4,ATAAAATGTATATGAATGCACTTGAAGTTTTTTTTT,9.55 ± 0.33
5,TCTCCTTGTTCCTTTTTTTTAAAAAAAAACATTAAA [CACACA_negctrl_site679],10.5 ± 0.41
6,TATTCTTACACGTTTGCACACTAAAATATATATATA [CACACA_site435],10.2 ± 0.18
7,CATAGGAACATAAGTTGTACGCTATACATACAACAT [XGTACX_site1054],11.4 ± 0.8
8,ATTTAATATATTTATTGTACATATAAAATAAAAGAA [XGTACX_site2413],11.2 ± 0.86
9,TATATGTGACATGAATGTACCCAAATTATATAAGAA [XGTACX_site3937],11.2 ± 0.88
10,TCTGTGTTTTTGGGTACACACAAATAGCTTGTATAT [CACACA_site4002],11.5 ± 0.92
11,TGAAAATTAATAAAAAGTACATAGTCAGATTTGTGA [XGTACX_site2450],11.4 ± 0.69
12,TTCCTTAATCAATATTGTACTTTTTATAAATTTAGT [XGTACX_site3678],11.4 ± 0.85
13,TATTTTTTCTTAAACACACACATATATATATATAAT [CACACA_site5567],10.2 ± 0.15
14,TAATAATAATACCAGCGTACATTTTTCTTTCCTACG [XGTACX_site4056],11 ± 0.67
15,ATTCAATATAAATACACACACACTTTTAATAATTAA [CACACA_site5963],10.1 ± 0.26
16,CCCGAACAAACAAATAAACACACAAAAAAAAATATA [CACACA_site8540],10 ± 0.28
17,TATTGAAAAAATAAAAGTACAAACTCTTATAATATG [XGTACX_site8196],11.3 ± 0.79
18,AACACATACAAACACACACACAAAAAAAAAAAAAAA [CACACA_site393],10.1 ± 0.62
19,ATTATATATGTATGGTGTACTAAGAATATTTTTTTA [XGTACX_site1950],11.2 ± 0.79
20,CTAAACAAAAAATAATGTACACATACATAAAAAATA [XGTACX_site1808],11.4 ± 0.76
21,ATATATATTTTATTATGTACTTACTTCTTTTCTTAA [XGTACX_site6163],11.3 ± 0.88
22,TTTTATAGTCTTATGGGTACAAAATATTAACCCACG [XGTACX_site1131],11.1 ± 0.63

row,Sequence,gcPBM binding intensity (ln)
1,ACATTCAATAAACGTCGTACACTTTCCTTTTTATGA [XGTACX_site3274],11.5 ± 0.9
2,AAAAAAACGATCGATCGTACTTATATTTACACATTC [XGTACX_site2883],10.8 ± 0.42
3,ACATGGTGATAATACTGTACAAAAATAAATAAATAC [XGTACX_site897],10.9 ± 0.41
4,TTGTTTGGTTATAATTGTACGCATGTAATTACATAT [XGTACX_site4972],11.5 ± 0.91
5,TTATTTTTCTAAAAAGCATGCAAATAAAGATATGAA [TGCATGCA_site1032],9.98 ± 0.18
6,TTATGTGTATACTAAGAACACACAAGTTACTTGGTG [CACACA_site8467],10.8 ± 0.16
7,ATTTTGATAACCGTACGTACATATATATATATATAT [XGTACX_site6605],11.8 ± 0.85
8,TGAATACTTATGTTCGCACACATGCAAATTAAAAAA [CACACA_site4048],10.5 ± 0.52
9,ATTCACTGGTATGCATGAAAAAAAATATTATTATAA [CACACA_negctrl_site702],9.97 ± 0.28
10,TATATATATTTATACACACACATATATTTATATATT [CACACA_site484],9.845 ± 0.035
11,ATATACATAAAAATATGTACATATAAAATATATACA [XGTACX_site2394],11.3 ± 0.96
12,ATATAATAAACGTGTACACAATTAAATTATTATATA [CACACA_site5017],11.7 ± 1.1
13,TTTAATATATATATGTGTACATATAAATTATATATA [XGTACX_site8511],11.5 ± 0.99
14,TTTATATTTTAAAAAATAATATTATGTATTTTTAAA [TGCATGCA_negctrl_site507],9.57 ± 0.099
15,GTACTTATTAAATGTGCATGTTGATATATAAATGTA [TGCATGCA_site902],10.6 ± 0.29
16,TTTTTTTTTTTTGGTGCATGCACATTTTGTTTTTTT [TGCATGCA_site570],10.1 ± 0.25
17,TATTATTATTGTTGATGTACATTTAATATAATATAT [XGTACX_site4482],11 ± 0.61
18,TAGACTCCCAGACACACACACACACCCATATAATAT [CACACA_site593],10.3 ± 0.24
19,AAAAAATAAAAGGAAAAAAAAAAAAAAAAAAAAAAT [CACACA_negctrl_site635],9.8 ± 0.11
20,TTTTTTGCTTGGGTGAGAAAAAATAAAATAAAGGAA [TGCATGCA_negctrl_site139],10.3 ± 0.42
21,TTATAATCTTTTGGTTCTATAGAATATCAAAAAATA [CACACA_negctrl_site1149],10.1 ± 0.31
22,TTATTAAAAATGTATTGTACAAATTTATTAGTAAAT [XGTACX_site4799],11 ± 0.52
